Our source for the binding signal values is PMC6451091.

This is one part of the list. For some assays here: At the low end of the ranking the order means little. For some assays here: The protein was read in a cell extract, so binding may be indirect.

The target in one test is PU.1 (IVT) (UniProt P17947). Put plainly: protein-binding microarray (PBM). The conditions noted are these: 20 mM HEPES pH 7.9, 100 mM NaCl, 1 mM DTT, 0.2 mg/mL BSA, 0.02% Triton X-100, 2% milk, 0.4 mg/mL salmon testes DNA; 1 h; temperature not stated; high values mean tight binding; double strand, one strand shown; sequences stand for … in GCCTAGCAC…GTGCTAGGTCTTGATTCGCTTGACGCTGCTG
GCCTAGGGGAACTGAAACTG had a binding signal of 1.52 z-score.
Sequence AGGAAGAGGAAGAGAAACTA displayed a binding signal of 2.47 z-score.
On the same count and under the same terms, the value for AAAAAAAGGCAATGAAAGTA was -0.00868 z-score; that for TGAAATAGGAAGTGAAACCA was 4.47 z-score.
Still for that read-out and setting: the value for AAAAAAAGGAAATGAAACTG was 3.4 z-score; that for CTGGCAGGGAGCTGAAACTC was -0.54 z-score.
The same measure, in the same setting: under TGAGAGTAGAAGTGAAACCT stands 0.287 z-score; under TAAAGGAGGAACTGAAAACA, 3.62 z-score; under TGAAACAGGAAGTGAACCCA, 6.26 z-score.
In turn, TAGCAGAGGAAGTGAAACTA gave a binding signal of 3.74 z-score.
On the same count and under the same terms, the value for TGAGAGGAGATGTGAAACCT was -0.334 z-score; that for TAAAGGAGGAACAGAAACCA was 1.73 z-score.
Same read-out and setting: under TGAAACAGGAAGTGAAACCT stands 6.74 z-score; under TGGCAGAGAAAGTGAAACTA, 0.431 z-score.
On the same count and under the same terms, under GATAGGAGGAACTGAAAGCT stands 2.1 z-score.
Sequence AGGGGAGAGAAGTGAAAGTG returned a binding signal of 0.354 z-score.
On the same count and under the same terms, the value for TAGAGGAGGAACTGAAACCA was 2.43 z-score; that for GAAAGGAGGATGTGAAACTA was 1.56 z-score; that for AAAAAAAGGAAATGAAGGTA was 3.57 z-score.
Same read-out and setting: under GAAGAGAGGAAGTGAAACTA stands 4.63 z-score; under GAAATGAGGAAATGAAACCA, 5.18 z-score; under CCACAGAGGAAATGAAACTT, 1.62 z-score.
TAAAGGGGGAACTGAAACCA displayed a binding signal of 2.77 z-score.
On the same count and under the same terms, the value for GAAAAGAGGAAGCGAAACTG was 6.84 z-score; that for CTGCCAGGGAAGTGCAAGCA was 0.9 z-score.
Consider GATAAGAGGAACTGAGAGCT, for which the binding signal was 3.92 z-score.
Still for that read-out and setting: the value for TAAAGGAGGAACTGAAACTA was 3.53 z-score.
Same read-out and setting: the value for TGACAGGAGAAGTGAAACCT was 0.655 z-score; that for GTGGTGAGGAACTGAAACTG was 1.8 z-score.
On the same count and under the same terms, under TTGGAAAGGAAGTGAAACTG stands 2.04 z-score; under AAGAAAGGGAAGTGAAACTA, 5.26 z-score.
In the case of TAAAGGAGGACCTGAAACCA, the binding signal is -0.249 z-score.
CTGTCAGGGAAGTGAAAGCA yielded a binding signal of 1.39 z-score.
In the case of TGCAGGTGGAAGTGAAACTG, the binding signal amounted to 1.39 z-score.
On the same count and under the same terms, the value for CTGCCAGGGAACTGAAAGCA was 0.492 z-score; that for TGAAACAGGAAGAGAAACCA was 2.68 z-score.
As to CTGGCCGGGAACTGAAACTC, the binding signal is -0.135 z-score.
On the same count and under the same terms, the value for CTGCCATGGAAGTGAAAGCA was 0.591 z-score; that for CTGCCAGGGAAGTGAAAGGA was 1.27 z-score; that for CTGGCAAGGAACTGAAACTC was 0.424 z-score.

The next test has as its target T1, FLI1 (endogenous, THP-1 nuclear extract) (UniProt Q01543).
T1 sequence: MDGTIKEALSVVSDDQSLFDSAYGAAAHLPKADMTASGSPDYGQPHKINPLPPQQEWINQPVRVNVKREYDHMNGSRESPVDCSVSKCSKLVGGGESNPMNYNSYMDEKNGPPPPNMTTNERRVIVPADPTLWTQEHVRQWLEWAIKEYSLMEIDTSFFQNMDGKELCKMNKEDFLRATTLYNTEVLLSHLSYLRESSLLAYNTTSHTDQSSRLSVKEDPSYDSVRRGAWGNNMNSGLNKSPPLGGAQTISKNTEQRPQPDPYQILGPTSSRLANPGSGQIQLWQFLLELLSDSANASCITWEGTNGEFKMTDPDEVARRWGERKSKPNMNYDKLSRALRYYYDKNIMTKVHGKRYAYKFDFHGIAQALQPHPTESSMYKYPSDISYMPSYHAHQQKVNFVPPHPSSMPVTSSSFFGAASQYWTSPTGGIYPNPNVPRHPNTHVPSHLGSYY
Put plainly: nuclear extract protein-binding microarray (nextPBM). The conditions noted are these: 20 mM HEPES pH 7.9, 100 mM NaCl, 1 mM DTT, 0.2 mg/mL BSA, 0.02% Triton X-100, 2% milk, 0.4 mg/mL salmon testes DNA; 1 h; temperature not stated; high values mean tight binding; double strand, one strand shown; sequences stand for … in GCCTAGCAC…GTGCTAGGTCTTGATTCGCTTGACGCTGCTG
GCCTAGGGGAACTGAAACTG registered a binding signal of 1.1 z-score.
The same measure, in the same setting: under AGGAAGAGGAAGAGAAACTA stands 2.47 z-score.
On the same count and under the same terms, the value for AAAAAAAGGCAATGAAAGTA was -0.573 z-score; that for TGAAATAGGAAGTGAAACCA was 3.37 z-score.
In the case of AAAAAAAGGAAATGAAACTG, the binding signal amounted to 2.85 z-score.
Regarding CTGGCAGGGAGCTGAAACTC, the binding signal was -0.784 z-score.
Still for that read-out and setting: under TGAGAGTAGAAGTGAAACCT stands -0.0654 z-score; under TAAAGGAGGAACTGAAAACA, 1.24 z-score.
On the same count and under the same terms, the value for TGAAACAGGAAGTGAACCCA was 6.09 z-score; that for TAGCAGAGGAAGTGAAACTA was 3.81 z-score; that for TGAGAGGAGATGTGAAACCT was 0.123 z-score.
On the same count and under the same terms, the value for TAAAGGAGGAACAGAAACCA was 0.735 z-score; that for TGAAACAGGAAGTGAAACCT was 5.85 z-score; that for TGGCAGAGAAAGTGAAACTA was -0.29 z-score.
Regarding GATAGGAGGAACTGAAAGCT, the binding signal stood at 0.738 z-score.
The same measure, in the same setting: the value for AGGGGAGAGAAGTGAAAGTG was 0.389 z-score; that for TAGAGGAGGAACTGAAACCA was 1.75 z-score.
Still for that read-out and setting: under GAAAGGAGGATGTGAAACTA stands 2.23 z-score; under AAAAAAAGGAAATGAAGGTA, 2.42 z-score; under GAAGAGAGGAAGTGAAACTA, 3.9 z-score.
Still for that read-out and setting: under GAAATGAGGAAATGAAACCA stands 3.26 z-score; under CCACAGAGGAAATGAAACTT, 2.76 z-score; under TAAAGGGGGAACTGAAACCA, 1.7 z-score.
In the case of GAAAAGAGGAAGCGAAACTG, the binding signal came out at 4.35 z-score.
Take CTGCCAGGGAAGTGCAAGCA: the binding signal is 0.69 z-score.
On to GATAAGAGGAACTGAGAGCT, for which the binding signal was determined as 1.22 z-score.
Still for that read-out and setting: the value for TAAAGGAGGAACTGAAACTA was 2.65 z-score; that for TGACAGGAGAAGTGAAACCT was 0.563 z-score.
Still for that read-out and setting: the value for GTGGTGAGGAACTGAAACTG was 1.17 z-score; that for TTGGAAAGGAAGTGAAACTG was 3.15 z-score.
Same read-out and setting: under AAGAAAGGGAAGTGAAACTA stands 3.14 z-score; under TAAAGGAGGACCTGAAACCA, -0.477 z-score.
Regarding CTGTCAGGGAAGTGAAAGCA, the binding signal turned out to be 1.05 z-score.
Same read-out and setting: under TGCAGGTGGAAGTGAAACTG stands 1.7 z-score.
Still for that read-out and setting: under CTGCCAGGGAACTGAAAGCA stands -0.512 z-score.
Sequence TGAAACAGGAAGAGAAACCA registered a binding signal of 2.71 z-score.
On the same count and under the same terms, the value for CTGGCCGGGAACTGAAACTC was -0.0298 z-score; that for CTGCCATGGAAGTGAAAGCA was 0.243 z-score.
The same measure, in the same setting: under CTGCCAGGGAAGTGAAAGGA stands 0.591 z-score.
The same measure, in the same setting: under CTGGCAAGGAACTGAAACTC stands 0.212 z-score.
